± gives the standard deviation of the averaged measurements. The list shows a part of the results.
The sequences below were run on PfAP2-I AP2 domain 3 (GST-tagged) (assay: gcPBM binding intensity (ln(normalized median fluorescence intensity)); higher = stronger DNA binding).
In short: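 The binding buffer was 1× PBS containing 1% milk, 0.2 mg/ml BSA, 0.5% salmon testes DNA and 0.03% Triton X-100. In it, GST-tagged P. falciparum DNA-binding domains expressed in E. coli were applied for 1 h to an Agilent 4 × 180k array of primer-extended double-stranded 36-bp intergenic genomic probes plus negative controls. Binding intensity, read with Alexa488 anti-GST antibody and a 488 nm scan, is the highest Masliner-normalised natural-log median intensity across replicate spots of either probe orientation.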
“CACACCATATAATATATATATATGTATATATTTATA [CACACA_negctrl_site397]” was tested, and the “gcPBM binding intensity (ln)” value was 7.48 ± 0.44.
“TTTGTTCTATGGAGTTTAAAATGTAATATATATTAA [GTGCAC_negctrl_site151]” was tested, and the “gcPBM binding intensity (ln)” value was 7.62 ± 0.18.
“ATATATATTAATAGTTGTACTATTATAATATTACAA [XGTACX_site1213]” was tested, and the “gcPBM binding intensity (ln)” value was 7.7 ± 0.38.
For “ATCCTGAACAGAATATGTATAAACAGAAGGAAACAA [CACACA_negctrl_site1805]”, the “gcPBM binding intensity (ln)” value was 7.92 ± 0.54.
With “TAATAATAGAGACACACACACATTTTTAATAATACA [CACACA_site6691]” the “gcPBM binding intensity (ln)” value was 7.84 ± 0.37.
For “ATATATATATATATATATATATATATATTTATATAT [GTGCAC_negctrl_site180]”, the “gcPBM binding intensity (ln)” value was 9.15 ± 0.45.
With “CTTTGTAGTTGGTCCACACACATATATGGAAGAATA [CACACA_site1280]” the “gcPBM binding intensity (ln)” value was 8.12 ± 0.33.
In the case of “AGAAAAATTCTAAGAACATGCAAAAAAATAAAAAAA [TGCATGCA_site293]”, the “gcPBM binding intensity (ln)” value is reported as 7.78 ± 0.86.
“TTAACATTTTAAAAATGTACATTTATATACATAAAT [XGTACX_site922]” was tested, and the “gcPBM binding intensity (ln)” value was 7.64 ± 0.36.
With “AAAAAATAAATAAATATACACACCATATATATATTT [CACACA_site2854]” the “gcPBM binding intensity (ln)” value was 7.58 ± 0.4.
“TCTAATGTAATGCATACACACAACTATCCATCAAAA [CACACA_site534]” was tested, and the “gcPBM binding intensity (ln)” value was 8.21 ± 0.38.
In the case of “AAAAAAAAAAAAAAAAGTACAAAAAAAAAAAAAAAA [XGTACX_site4549]”, the “gcPBM binding intensity (ln)” value is reported as 8.68 ± 0.3.
For “TATACCTATAGACACACACACATAAATAGATATATA [CACACA_site6748]”, the “gcPBM binding intensity (ln)” value was 7.87 ± 0.33.
With “TACACGCATAGACACACACACACACGCATATAAATA [CACACA_site6446]” the “gcPBM binding intensity (ln)” value was 8.26 ± 0.33.
For “TTTTTTTTTTTAAATAGTACACATATATATATATAT [XGTACX_site6983]”, the “gcPBM binding intensity (ln)” value was 9.55 ± 0.22.
In the case of “AGTTTACACCTTGTGAGTACATACATACATATATAT [XGTACX_site8793]”, the “gcPBM binding intensity (ln)” value is reported as 7.98 ± 0.51.
For “TTTTATTTTTCTAGTAGTACTTCTTTTTATAATATA [XGTACX_site1181]”, the “gcPBM binding intensity (ln)” value was 7.92 ± 0.69.
For “AATACAATATAAAGGTGTACATATATATATATATAT [XGTACX_site68]”, the “gcPBM binding intensity (ln)” value was 9.35 ± 0.33.
With “AAAAAAAAAAAAAAAACACACACAACACCCATACCT [CACACA_site9208]” the “gcPBM binding intensity (ln)” value was 8.89 ± 0.53.
With “ATGTAGATAGATAGGGTGCTAAAAATAAGATTTATA [GTGCAC_site9602]” the “gcPBM binding intensity (ln)” value was 9.6 ± 0.042.
“TACAAAATATTTTACACACACATATAAATACCTATA [CACACA_site7272]” was tested, and the “gcPBM binding intensity (ln)” value was 8.185 ± 0.021.
For “TATATAATTATTTGATGTACACTACAATGTATTTGT [XGTACX_site7991]”, the “gcPBM binding intensity (ln)” value was 7.79 ± 0.28.
“TTATGTTCTTAATGCACACTTATAAGTATCTTATAA [CACACA_site1394]” was tested, and the “gcPBM binding intensity (ln)” value was 10.99 ± 0.028.
In the case of “TATAAAATATATATCTGTACGTATTTTATTTTTTAT [XGTACX_site6257]”, the “gcPBM binding intensity (ln)” value is reported as 7.94 ± 0.099.
With “TATAAGCAAAGACACACACACATATAAATATAAATA [CACACA_site7740]” the “gcPBM binding intensity (ln)” value was 7.79 ± 0.54.
“AATTATTCATAAAATGCATGTACATGGTTTAATATT [TGCATGCA_site87]” was tested, and the “gcPBM binding intensity (ln)” value was 7.93 ± 0.59.
With “ATACATGTTTTATGTGCACACAAAGTTGTTATGAGG [CACACA_site4032]” the “gcPBM binding intensity (ln)” value was 10.4 ± 0.11.
In the case of “TCGTAAACTTTATGCACACACATATACATATTTCAT [CACACA_site739]”, the “gcPBM binding intensity (ln)” value is reported as 10.2 ± 0.53.
In the case of “ATAATACACAAGCACACACACACACGGATATTTATA [CACACA_site6714]”, the “gcPBM binding intensity (ln)” value is reported as 8.21 ± 0.47.
In the case of “ATAATTATATTTTATTCACACATCGTTATATAGTAA [CACACA_site4743]”, the “gcPBM binding intensity (ln)” value is reported as 7.88 ± 0.49.
For “ATTATGGATACATAAACACACATATATATAAAAAAA [CACACA_site4303]”, the “gcPBM binding intensity (ln)” value was 7.86 ± 0.71.
In the case of “ACATGATAAATAGTCACACATAAATATAATATATAT [CACACA_site5207]”, the “gcPBM binding intensity (ln)” value is reported as 7.75 ± 0.54.
For “ACTTTTTTTTTTTTTTTAGATTACATAAATATAAAT [CACACA_negctrl_site139]”, the “gcPBM binding intensity (ln)” value was 7.93 ± 0.33.
For “TATGTATATTTAAATGCATGTGATTATTTTTGACTT [TGCATGCA_site568]”, the “gcPBM binding intensity (ln)” value was 7.78 ± 0.45.
With TTATAAATTTAAAAAGTGCATAATAATAACAAAAAG the “gcPBM binding intensity (ln)” value was 11.2 ± 0.67.
For “TATTTTTATTTTCCTTCACACATTTTTTATATTTTT [CACACA_site5830]”, the “gcPBM binding intensity (ln)” value was 7.88 ± 0.54.
“AAAAAAAAAAAAAAAACACACATATAGATTATTGTA [CACACA_site7797]” was tested, and the “gcPBM binding intensity (ln)” value was 8.6 ± 0.5.
In the case of “TTTTAATTTATCGACACACGCATGAATAGAAATTAG [CACACA_site3361]”, the “gcPBM binding intensity (ln)” value is reported as 7.63 ± 0.57.
With “AACACAATAAAAATTAAAAATGTTAAGTAAATATAA [GTGCAC_negctrl_site60]” the “gcPBM binding intensity (ln)” value was 7.45 ± 0.6.
With “TTATAATTTAATAAATGTACATAAATAATATACATA [XGTACX_site7271]” the “gcPBM binding intensity (ln)” value was 7.55 ± 0.16.
In the case of “AGACAATATCTTATTTGTACATATGTATTCCTCATA [XGTACX_site5757]”, the “gcPBM binding intensity (ln)” value is reported as 7.88 ± 0.63.
In the case of “ATGTTATATTTTTTTATACACACTGGGATATATAAA [CACACA_site6244]”, the “gcPBM binding intensity (ln)” value is reported as 7.93 ± 0.59.
With “TTCATTGTGTTAACGGTGCATATATTTTTTCACCGT [GTGCAC_site9464]” the “gcPBM binding intensity (ln)” value was 10.4 ± 0.47.
“TAAAAATATAAAAAGTGTACAATATATAAATTAATA [XGTACX_site1606]” was tested, and the “gcPBM binding intensity (ln)” value was 7.95 ± 0.5.
